From PubChem BioAssay AID485364 (National Center for Advancing Translational Sciences (NCATS), 2010)
Hit rate of the full screen: of about 360,000 compounds, about 11,000 (3.1%) were called active. Inconclusive means that the source gave no clear call. Such entries were picked first, then a sample of the others. Calls come from the whole dose curve; as a rule, active = well fitted inhibition curve with a large enough effect; inconclusive = small, poorly fitted or top-dose-only effect; inactive = no such curve, though single readings can be large or run the other way. Potencies of inconclusive entries are left out as doubtful fits.

Each molecule was assayed against Schistosoma mansoni thioredoxin glutathione reductase (TGR) (UniProt Q962Y6) (assay: qHTS Assay for the Inhibitors of Schistosoma Mansoni Peroxiredoxins). Conditions: purified TGR, DTNB reduction, TNB absorbance 405 nm; series mostly up to 114 µM.
In short: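 First, TGR (20 nM dispensed) and NADPH were mixed with compound. Second, a 15 min room-temperature incubation followed. Third, further NADPH and then DTNB were added to start the reaction. Finally, TNB absorbance was monitored kinetically.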
Note: nearly all actives have a fitted effect of over 60% in size.
Potency is the fitted concentration of half-maximal effect; tags give direction and shape of the fitted curve.

Row | Structure (SMILES) | Potency
1 | Cc1cccc(NC(=O)/C(=C\c2ccco2)NC(=O)c2ccccc2)c1 | active: 20 µM
2 | Cc1c(NCc2ccccc2O)c(=O)n(-c2ccccc2)n1C | inconclusive [inhibitor, single point]
3 | Cc1ccc(C)c(N2CCN(c3c(CN4CCCC4)c(=O)oc4ccccc34)CC2)c1 | inconclusive [inhibitor, single point]
4 | O=c1[nH]c(C2CCCN(S(=O)(=O)c3ccccc3)C2)nc2c1nnn2Cc1ccccc1 (stereo not given) | active: 89.1 µM
5 | Cc1nn(-c2ccccc2)c(OC(=O)c2cccs2)c1S(=O)(=O)c1ccccc1 | inconclusive [inhibitor, partial curve]
6 | Cc1nn2c(=O)cc(COC(=O)Cc3ccccc3)nc2s1 | inactive
7 | O=C(Nc1ccc(S(=O)(=O)N2CCOCC2)cc1)C1COc2ccccc2O1 (stereo not given) | inactive
8 | COc1ccccc1/C=N/NC(=O)c1ccc(Br)cc1 | inactive
9 | COc1cccc(CN2CCN(C(=O)CCc3nnc(C4CCCCC4)o3)CC2=O)c1 | inconclusive [inhibitor, partial curve]
10 | CC(C)N(Cc1cc2ccccc2[nH]c1=O)C(=O)c1cccnc1 | inactive
11 | O=C(COc1c(Br)cc(Br)c2cccnc12)Nc1ccccc1F | inconclusive [inhibitor, partial curve]
12 | Cc1c(C(=O)Nc2ccc(C(=O)O)cc2)nnn1-c1ccccc1 | inactive
13 | CC(=O)Nc1cccc(C(=O)OCC(=O)NC(=O)c2ccccc2)c1 | inactive
14 | COc1nccnc1NS(=O)(=O)c1ccc(N/C=C2\CCCCC2=O)cc1 | inactive
15 | CCN(CC)S(=O)(=O)c1ccc(N2CCCC2)c(NC(=O)c2ccc(OC)cc2OC)c1 | inconclusive [inhibitor, partial curve]
16 | C=CCN1C(=O)C(O)(CC(=O)c2ccc(Cl)cc2)c2ccccc21 (stereo not given) | inconclusive [inhibitor, partial curve]
17 | O=C1c2sc3nc4ccccc4n3c2C(=O)N1c1ccccc1Cl | inconclusive [inhibitor, full curve]
18 | Cc1ccc(CNC(=O)CCC2CCCN(Cc3ccc4cccc(F)c4n3)C2)o1 (stereo not given) | active: 39.8 µM
19 | O=S(=O)(c1ccccc1)c1nc(-c2ccco2)oc1NCc1ccccc1 | active: 35.5 µM
20 | CCC1CCCCN1C(=O)COc1ccc2c(c1)OCO2 (stereo not given) | inactive
21 | COc1cccc(-c2nc(CS(=O)CC(=O)NCc3ccccc3)c(C)o2)c1 (stereo not given) | inconclusive [inhibitor, partial curve]
22 | O=C(Nc1ccc(OC(=O)c2ccco2)cc1)c1ccco1 | inactive
23 | CCCCN(CC)CCCNC(=O)c1cc2c(=O)[nH]c3ccccc3c2n1C | inconclusive [inhibitor, partial curve, poor fit]
24 | CCNC(=S)Nc1cccc(F)c1C | inactive
25 | CCn1cc(C(=O)NCc2ccco2)c(=O)c2cc(S(=O)(=O)N3CCc4ccccc4C3)ccc21 | active: 14.1 µM

Row | Structure (SMILES) | Potency
26 | Cc1ccc(/C=C/C(=O)OCC(=O)Nc2cccc(S(=O)(=O)N(C)C)c2)o1 | inconclusive [inhibitor, single point]
27 | NC(=O)c1ccc(NC(=O)c2ccc3c(c2)OCO3)cc1 | inactive
28 | Cc1ccsc1/C=N/n1c(-c2cccnc2)n[nH]c1=S | inconclusive [inhibitor, partial curve]
29 | CC(=O)c1ccc(NS(=O)(=O)c2cccc(S(=O)(=O)c3ccc(Cl)cc3)c2)cc1 | inactive
30 | CSc1scc2c1-c1nc(SCC(=O)C(C)(C)C)ncc1CC2 | inactive
31 | O=C(Nc1ccc(-n2nncc2-c2ccco2)cc1)c1cccc(F)c1 | inconclusive [inhibitor, partial curve]
32 | COc1ccc(N(C(=O)c2ccncc2)S(=O)(=O)c2cccs2)cc1 | active: 25.1 µM
33 | O=C1CC(=O)N(CCc2ccc(F)cc2)C(=O)N1 | inconclusive [inhibitor, full curve, poor fit]
34 | COc1cc(NS(=O)(=O)c2ccc(NC(=S)NC(=O)c3ccccc3)cc2)nc(OC)n1 | active: 20 µM
35 | Cc1nn2c(C)c(C(=O)NCc3ccco3)cnc2c1-c1ccccc1 | inconclusive [inhibitor, partial curve]
36 | CN1CCCC(OC(=O)c2ccc3c(c2)OCCO3)C1 (stereo not given) | inactive
37 | COc1ccc(NC(=O)CCn2cccc2)cc1 | inconclusive [inhibitor, partial curve]
38 | Cc1[nH][nH]c(=O)c1C(c1ccc(-c2ccc(C(=O)O)cc2)o1)c1c(C)[nH][nH]c1=O | active: 15.8 µM
39 | Cc1cc(C)nc(N/N=C/c2ccc([N+](=O)[O-])o2)n1 | inconclusive [inhibitor, partial curve]
40 | Cn1cc(CN2CCC(n3nccc3NC(=O)Cc3ccccc3)CC2)cn1 | inactive
41 | O=C(CSc1ccc(-c2ccco2)nn1)Nc1ccc(F)cc1F | inconclusive [inhibitor, partial curve, poor fit]
42 | C=CCN1C(=O)NC(=O)/C(=C/c2cc3c4c(c2)CCCN4CCC3)C1=O | active: 8.91 µM
43 | CCOc1ccc(OCC(=O)OCC(=O)N2CCN(C(=O)c3ccco3)CC2)cc1 | inactive
44 | CCC(=O)N1c2ccccc2CC1C(=O)NCCc1ccccc1 (stereo not given) | inactive
45 | CN(C(=O)COc1ccc2ccc(=O)oc2c1)C1CCS(=O)(=O)C1 (stereo not given) | inconclusive [inhibitor, full curve, poor fit]
46 | c1ccc(-n2nnnc2OCCOc2nnnn2-c2ccccc2)cc1 | inconclusive [inhibitor, single point]
47 | CC(C)c1cc(C(=O)NCc2ccco2)no1 | active: 50.1 µM
48 | Cc1sc2nc(C(C)C)nc(SCC(=O)NCc3ccco3)c2c1C | active: 44.7 µM
49 | CC(Oc1ccc(/C=N/NC(=O)Cc2cccc3ccccc23)cc1)C(=O)O (stereo not given) | inconclusive [inhibitor, single point]
50 | Cc1nn(C(=O)c2ccc(Cl)cc2)c(C)c1S(=O)(=O)N1CCOCC1 | inconclusive [inhibitor, partial curve]
